# Experimental data published in PubChem BioAssay AID686978 (National Center for Advancing Translational Sciences (NCATS), 2013).
# “And” between values parts separate entries of the source, which are not always exact repeats. Equal entries are not always repeated. Screen size: about 420,000 compounds; about 64,000 (15%) were called active. Inconclusive results, whose numbers are uncertain, are shown with a selection of clear calls. Calls come from the whole dose curve; as a rule, active = well fitted inhibition curve with a large enough effect; inconclusive = small, poorly fitted or top-dose-only effect; inactive = flat fitted curve, though single readings scatter. Potencies of inconclusive entries are left out as doubtful fits.
# Experiment: qHTS for Inhibitors of human tyrosyl-DNA phosphodiesterase 1 (TDP1): qHTS in cells in absence of CPT; note: nearly all actives have a fitted effect of over 55% in size
# Conditions: DT40 Tdp1-/- hTDP1 cells, no CPT, ATP luminescence, 48 h; activity change, negative = growth inhibition: at 46.2 µM (top of the series) unless noted
# Procedure, shortened: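 Luminescent ATP content (CellTiter-Glo) served as the growth readout. Knockout chicken DT40 cells expressing human TDP1 were exposed to compounds without camptothecin for a minimum 48 hr at 37 °C.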
# % is set by controls: 0 for no effect and ±100 for the full control effect; potency is the fitted concentration of half-maximal effect; tags give direction and shape of the fitted curve.
SMILES,Potency,"activity change, negative = growth inhibition"
CC1(C)Cc2c(C#N)c(OCC(=O)c3ccccc3)nc(-c3ccoc3)c2CO1,"inconclusive [inhibitor, partial curve]",–
CCCCNC(=S)Nc1ccccc1F,"inconclusive [inhibitor, full curve, poor fit]",–
Cc1ccccc1-c1ccc(CN2C(C)C(=O)N(Cc3cn(Cc4ccco4)nn3)CCS2(=O)=O)cc1 (configuration not stated),"inconclusive [inhibitor, single point]",–
O=C(NCCCc1ccncc1)C1CCC(=O)N(Cc2cccc(F)c2)C1 (configuration not stated),–,inactive: 14.3%
CCN1CCOC(=O)C1CC(=O)Nc1ccc(C(C)=O)cc1 (configuration not stated),active: 10.3 µM,–
Cc1ccc(C(C)C)c(OCCN)c1,"inconclusive [inhibitor, partial curve]",–
Cc1ccc(C(=O)OCC(=O)Nc2cc(S(C)(=O)=O)ccc2Cl)cc1S(=O)(=O)N1CCCCC1,–,inactive: -7.48%
C[C@@H]1CN([C@H](C)CO)C(=O)c2cc(Br)cnc2O[C@@H]1CN(C)Cc1ccc(-c2ccccc2)cc1,"inconclusive [inhibitor, single point]",–
O=C(c1noc2c1CCCC2)N1CCN(c2ccc(F)cc2)CC1,"inconclusive [inhibitor, single point]",–
CCC1NC(=S)NC(C)=C1C(=O)c1ccccc1 (configuration not stated),–,inactive: 2.2%
CCc1ccccc1NC(=O)c1sc2nc3n(c(=O)c2c1C)CCC3,"inconclusive [inhibitor, partial curve]",–
O=C(COC(=O)c1ccc(F)cc1Cl)Nc1cccc(S(=O)(=O)N2CCOCC2)c1,–,inactive: -37.2%
Clc1ccc(-c2nc(/C=N/N3CCOCC3)c3ccccn23)cc1,–,inactive: -27.5%
Cc1ccc(-c2csc3ncnc(SCC(=O)c4ccc5c(c4)OCCO5)c23)cc1,"inconclusive [inhibitor, single point]",–
CC1CCC(C(C)C)C(OC(=O)Cn2c(-c3ccc(Cl)cc3)[n+](C)c3ccccc32)C1 (configuration not stated),active: 2.06 µM,–
CCc1cc(-c2n[nH]c(=S)n2Cc2ccccc2)cs1,"inconclusive [inhibitor, single point]",–
Cc1cccc(C(=O)Nc2cc(C)ccc2NC(=O)COc2ccccc2)c1,"inconclusive [inhibitor, single point]",–
Cc1scc(C(=O)Nn2cnnc2)c1-c1ccccc1,–,inactive: -0.475%
COc1ccc(CC(O)COS(N)(=O)=O)cc1 (configuration not stated),–,inactive: 13%
Cc1ccc(S(=O)(=O)N2CCN(CC(=O)N/N=C\c3ccccn3)CC2)cc1,–,inactive: 8.03%
O=C(NCCCc1nc2ccccc2n1Cc1ccccc1)C1CCCCC1,active: 16.4 µM,–
Cc1ccccc1OCc1ccc(-c2nc(C#N)c(N3CCN(c4ccccc4)CC3)o2)o1,–,inactive: -17.2%
CCOC(=O)c1c(C2CC2)csc1NC(C)=O,"inconclusive [inhibitor, partial curve, poor fit]",–
CCOC(=O)c1ccc(NC(=O)CSc2nnc(COc3ccccc3)n2C)cc1,"inconclusive [inhibitor, full curve, poor fit]",–

SMILES,Potency,"activity change, negative = growth inhibition"
Cc1ccccc1-c1nc(CS(=O)(=O)CC(=O)NCc2ccccc2)c(C)o1,"inconclusive [inhibitor, single point]",–
CC(=O)CCC(=O)NC1CCCc2c1cnn2-c1ccc(C(C)(C)C)cc1 (configuration not stated),"inconclusive [inhibitor, partial curve]",–
O=C(O)/C=C/C=C/c1ccccc1,–,inactive: -22.7%
C=CCN(CC=C)Cc1c(O)ccc2c1oc(=O)c1ccccc12,–,inactive: -23.2%
O=c1[nH]c(N2CCOCC2)cc2ccccc12,–,inactive: 1.22%
CC1(C)CC(=O)C(c2ccccc2)(c2ccccc2)C(=O)C1,"inconclusive [inhibitor, partial curve]",–
O=C(c1ccco1)n1nc(-c2ccc(Cl)cc2)nc1NCc1ccco1,–,inconclusive: -32.2% [inhibitor]
O=c1c2[nH]cnc2n(-c2cccc(F)c2)c(=O)n1Cc1ccccc1,–,inactive: 5.01%
CN1C(=O)C(C)(C)c2cc(S(=O)(=O)NCCc3ccc(Cl)cc3)ccc21,–,inactive: -12.8%
COc1ccc(CNC(=O)CCSCc2cccc(Cl)c2)c(OC)c1,"inconclusive [inhibitor, single point]",–
Nc1nc(SCc2ccccc2)c2ncn(Cc3ccccc3)c2n1,"inconclusive [inhibitor, single point]",–
Cc1ccccc1OCC(=O)Nc1cccc(C(=O)O)c1,–,inactive: 5.02%
O=C(CSc1nnc(CNC(=O)c2cccs2)o1)NCCc1ccccc1,–,inactive: -12.7%
CCOc1ccc(CNC(=O)c2ccc(NC(=O)N3CCSc4ncccc43)cc2)cc1OC,"inconclusive [inhibitor, partial curve]",–
CCOc1ccccc1NC(=O)C(=O)CC(=O)c1cccc(OC)c1,"inconclusive [inhibitor, single point]",–
COCCN1C(=O)C(CC(=O)Nc2ccccc2)SC1=Nc1ccc(OC)cc1 (configuration not stated),–,inactive: -13%
Cc1cccc(NC(=S)NNC(=O)c2csc3c2CCCC3)c1,"inconclusive [inhibitor, single point]",–
CC1=C(C(=O)N(C)C)CC(CC(=O)NCCCCc2ccccc2)C(=O)N1Cc1ccc(F)cc1 (configuration not stated),"inconclusive [inhibitor, single point]",–
Nc1ncnc2c1c(I)cn2C1OC(CO)C(O)C1O (configuration not stated),active: 651 nM and active: 517 nM and active: 276 nM,–
COc1ccccc1OCC(=O)NCCc1nc2ccccc2[nH]1,–,inconclusive: -31.9% [inhibitor]
COCCCn1c(C2CCCCC2)nc2oc3cc(OC)ccc3c(=O)c2c1=O,active: 20.6 µM,–
CCc1ccc(-c2cc(C)no2)cc1S(=O)(=O)Nc1ccc(C)cn1,"inconclusive [inhibitor, single point]",–
CCn1cc(C(=O)O)c(=O)c2cc(F)c(N3CCN(C(=S)NC(=O)c4ccccc4Cl)CC3)cc21,"inconclusive [inhibitor, single point]",–
CNC(=S)N(CCc1c(C)[nH]c2ccc(C)cc12)Cc1ccco1,"inconclusive [inhibitor, single point]",–

SMILES,Potency,"activity change, negative = growth inhibition"
Cc1cc(C)c(C(=O)NC2CCCc3c2cnn3-c2cccc(C)c2C)o1 (configuration not stated),"inconclusive [inhibitor, partial curve]",–
Cc1ccc(-n2c(-c3cccc(C)c3)n[nH]c2=S)cc1,"inconclusive [inhibitor, partial curve]",–
CC(C)(C)OC(=O)[C@H](Cc1ccccc1)NC(=O)c1ncn2c1c(=O)[nH]c1ccc(Br)cc12,active: 3.26 µM,–
CN1CCN(c2ccc3c(c2)OC[C@@H](Cc2ccccc2)NS3(=O)=O)CC1,"inconclusive [inhibitor, partial curve]",–
O=C(Nc1ccc(O)cc1)/C(=C\C=C\c1ccccc1)NC(=O)c1ccccc1,active: 16.4 µM,–
COc1ccc(OC)c(S(=O)(=O)N2CCN(Cc3ccccc3)CC2)c1,"inconclusive [inhibitor, single point]",–
COC(=O)[C@H](CC(C)C)NC(=O)c1cc2c(cn1)[nH]c1ccccc12,"inconclusive [inhibitor, single point]",–
CC(=O)Nc1nc2ccccc2n1CCOc1ccccc1,"inconclusive [inhibitor, single point]",–
Fc1cccc(Nc2ncnc3sccc23)c1,"inconclusive [inhibitor, single point]",–
O=C(c1cccc2cccc(O)c12)N1CCCCC1,"inconclusive [inhibitor, partial curve]",–
Cc1cc2c(cc(C(=O)OCC(=O)NCc3cccs3)n2C(C)C)o1,active: 0.731 µM,–
Cc1cccc(-c2nnn3c2nc(NCc2ccccc2)c2ccccc23)c1,active: 20.6 µM,–
CSc1ccc(CCNC(=O)CCc2nnc3ccc(N4CCCCC4)nn23)cc1,"inconclusive [inhibitor, single point]",–
O=C1CC2(CCN(C(=O)c3ccc(F)c(F)c3)CC2)Oc2ccccc21,"inconclusive [inhibitor, single point]",–
COc1ccc(CCN=C(N)NS(=O)(=O)c2ccc(C)cc2)cc1,"inconclusive [inhibitor, partial curve, poor fit]",–
N#Cc1ccc(CN2CCN(C(=O)C3CC(=O)N(c4ccccc4F)C3)CC2)cc1 (configuration not stated),–,inactive: -8.43%
CCn1c(SCC(=O)NC2CCCCC2)nnc1-c1ccco1,–,inactive: 6.81%
NS(=O)(=O)c1cccc(NC(=O)c2cccnc2Oc2ccccc2)c1,"inconclusive [inhibitor, partial curve, poor fit]",–
COc1ccc(CCNC(=O)c2cc(S(=O)(=O)N3CCCC(C)C3)cn2C)cc1OC (configuration not stated),"inconclusive [inhibitor, single point]",–
COc1ccc(-c2ccc(CN3C(C)C(=O)N(Cc4cn(CC5CCCCC5)nn4)CCS3(=O)=O)cc2)cc1 (configuration not stated),active: 10.3 µM,–
Cc1ccc(S(=O)(=O)NNC(=O)CCC(=O)Nc2ccc(C)c(C)c2)cc1,–,inconclusive: -33% [inhibitor]
COc1cccc(CNC(=O)CCC2CCCN(C(=O)c3ccccc3N(C)C)C2)c1 (configuration not stated),"inconclusive [inhibitor, single point]",–
Cc1ccsc1C(=O)N1CCC1(C)C(=O)NS(=O)(=O)c1ccc(C#N)cc1 (configuration not stated),–,inactive: -14.4%
Cc1sc2ncn(CC(=O)N(CC(=O)NC3CCCC3)Cc3cccs3)c(=O)c2c1C,"inconclusive [inhibitor, single point]",–
